According to the supplement of paper PMC3334620:
The full ranking holds about 33,000 sequences; the median of “E-score (-0.5 to 0.5)” is about -0.035, and the highest 2% start at about 0.34. Some of the results follow.

These sequences were tested against T1, Mot3 (UniProt P54785) (assay: PBM E-score (8-mer binding enrichment) (E-score (-0.5 to 0.5)); higher = stronger / more preferred TF binding; most listed sequences are background and not binding sites). Conditions: protein concentration: 200 nM; construct: GST-full length.
T1 sequence: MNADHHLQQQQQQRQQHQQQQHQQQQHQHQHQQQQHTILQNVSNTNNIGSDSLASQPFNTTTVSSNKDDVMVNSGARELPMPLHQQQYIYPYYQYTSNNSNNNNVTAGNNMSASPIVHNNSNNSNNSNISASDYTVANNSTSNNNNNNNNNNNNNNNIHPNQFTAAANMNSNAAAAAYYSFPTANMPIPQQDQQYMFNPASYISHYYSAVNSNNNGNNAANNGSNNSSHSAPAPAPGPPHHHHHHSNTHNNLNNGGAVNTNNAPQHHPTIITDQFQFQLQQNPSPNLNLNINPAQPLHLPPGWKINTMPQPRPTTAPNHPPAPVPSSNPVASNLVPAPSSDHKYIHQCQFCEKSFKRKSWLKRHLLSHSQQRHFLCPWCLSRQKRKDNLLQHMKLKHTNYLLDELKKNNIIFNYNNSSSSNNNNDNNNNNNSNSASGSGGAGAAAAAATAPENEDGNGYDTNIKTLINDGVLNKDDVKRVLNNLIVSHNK
Protocol: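 Universal 'all 10-mer' protein binding microarrays (Agilent AMADID 015681) probed with GST-tagged S. cerevisiae TFs (full-length or DBD) made by in vitro transcription/translation (PURExpress), about 100-200 nM. Bound TF was detected with fluorescent anti-GST. Each ungapped 8-mer (which stands for itself and its reverse complement) is scored by the PBM enrichment score (E-score), a modified Wilcoxon-Mann-Whitney statistic from -0.5 to +0.5, computed with the Universal PBM Analysis Suite. Scale: above 0.35 generally sequence-specific binding.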

Sequence | PBM E-score
AGTTACTC | -0.0616
ATATTTTG | -0.0539
ACTGTGTA | 0.349
ATGTCTCA | -0.114
CCCGTATA | -0.163
AAATTGAC | 0.0359
CCTTTTAG | 0.172
ATATATAA | 0.0423
AGTGGGGA | -0.256
AAGCTCTC | -0.169
TTCCCGAA | 0.0585
TCCTACGA | -0.0139
CCGAATAG | -0.139
ACGTGGAT | 0.0404
ACGCAGTG | -0.108
ACCCCAAC | -0.0506
ACCTAGGC | -0.0303
CATCAGTC | -0.102
ATACAAAA | 0.182
GCACGTAC | 0.0875
ACACTTTC | 0.0387
ACTCTGCT | -0.157
CCACACTC | -0.231
ATGCGAGC | -0.135
CCCCCTCA | -0.297

Sequence | PBM E-score
CATAGGGA | 0.0898
GCTGTGTA | 0.354
CTCTAAGC | -0.142
ACAAAGAC | 0.135
AATCTGCA | -0.0362
CACAAGTG | 0.128
CACGCGAA | 0.159
AGAGGTAT | 0.156
ATGATCGG | -0.22
ACGGTTAA | 0.192
GTGTATGA | 0.163
ATCCTTTA | 0.104
ATTTATGA | -0.0763
CAGTTCAA | -0.064
AACCAAAA | 0.0731
ATTTCTAG | 0.0373
ACCCAGGA | -0.0555
CCCACATA | -0.135
TCTTTGAA | -0.104
CACTATCA | 0.00033
GAACAAAA | 0.181
TAGGCTAA | -0.0523
GTAGTGAA | 0.0895
CCAGCACA | -0.0764
CGCTCCGC | -0.312

Sequence | PBM E-score
GCGGGTTA | 0.0504
TCGTATCA | -0.0617
GAGCGCAA | -0.211
CCGCGAGA | -0.221
CGAGTCAC | -0.163
GACGTAAC | 0.0796
GTGTAGGA | 0.244
AGATTGAC | -0.0586
CGTTTGAC | -0.0155
AAATTATC | 0.21
GAAGGATA | -0.0542
AGCAGAAG | -0.205
ACAGGCGC | 0.371
CGAGGTTC | -0.201
AGGTTACC | 0.238
ATGAAACC | 0.0541
AACCTTTG | 0.0887
GGCCGCCC | -0.204
AAGCGTCA | 0.0636
GGTTAACC | -0.0693
CGATTCCA | -0.0808
AACATTCC | -0.0683
AGTCCCAA | -0.123
CGGAGTTC | 0.0816
AATTGTGA | 0.108

Sequence | PBM E-score
ATTGGGTC | -0.0411
CTAGCTAA | -0.042
ACCGCTCG | -0.12
GTTGAGTA | 0.212
CCCAGAAC | -0.194
AGCGCGAC | -0.24
ATTTCTAA | -0.0305
CCATAACA | 0.255
AGTCTTAA | -0.00547
ATTCGGCA | -0.066
CATCAAGC | -0.203
AGTCCAGC | -0.109
AATCCTAC | 0.0549
ACCATCAT | 0.0139
GTTAAATA | 0.257
ATGAGCTA | -0.0694
AAGCTGTG | -0.083
GGGATTTA | -0.105
CACGTAAC | 0.128
AGTATGTG | -0.00317
GCCGCTAC | -0.314
GAACGGCA | -0.0742
CAGCACGA | -0.0559
ACGGGATC | 0.0431
TCCACCCA | -0.259

Sequence | PBM E-score
GAGAGTCA | -0.259
TGTGAGAA | -0.0671
CTAACCCA | -0.0185
CGGCCCCC | -0.414
CTTTAGGA | 0.261
TGTTGAAA | 0.291
GCACTGAA | 0.0704
ATGTAGTA | 0.308
ATCAGCTC | -0.142
TAAGTCTA | -0.0273
CTACTCAG | 0.0407
AGCGGTCC | -0.235
AATGCCTG | 0.352
TACGTGAA | 0.161
CTAAGGGA | -0.208
AAAATTAA | 0.129
CTTTCACA | 0.206
AACAAGAG | 0.251
CATGCCAC | 0.0587
GCGGCCTA | -0.128
AGATAGTA | -0.0082
GGGAGCCA | -0.163
CGACATCA | -0.00785
AGCGGCGC | -0.193
GCCCTTAA | -0.0233

Sequence | PBM E-score
GAAGGGTC | -0.0602
ACAAGTCT | 0.198
TATCGACA | 0.209
ATAAGTTC | -0.0796
CCCGACGG | -0.168
TATCGCCA | -0.244
CATCACAA | 0.19
AAAGCCGG | -0.133
AGACATAT | 0.098
CACTCGTC | -0.185
GAACTACA | 0.156
GTGATCCA | -0.152
GTGTACAA | 0.325
GACCACTA | -0.0309
AGGAGAAA | -0.173
CTCTATGA | -0.0519
AAATTGCG | 0.173
AATAGACA | 0.157
GGCTTTAC | 0.215
ACCGGAGT | -0.0522
CAGTGCCA | -0.156
ATCTAGAT | -0.173
AGGTTTGG | -0.141
ACAAGTCC | -0.0137
GAATAACA | 0.277

Sequence | PBM E-score
CTCTTAGC | -0.0379
ATCAGTCA | 0.165
ATGAACTC | -0.14
AACTGACA | 0.155
GAAGCTTA | -0.0105
AATATATC | 0.12
ATTACCAC | 0.0997
AGGAAAAT | 0.416
GATTAAGA | 0.14
AATACCAA | -0.0344
GGATCAGA | -0.0306
AACTAATC | -0.188
CTATGTAC | 0.378
CGGCACCA | -0.159
GAGACGGC | -0.0361
ACGCTCCC | -0.0438
AAGCCATA | -0.216
TCTTTTCA | 0.0704
GAACGGTC | -0.253
AGATGACA | 0.152
TCATCTAA | 0.059
GGAGAAAA | -0.133
